Data reported in article PMC4336329 (PLoS ONE, 2015).
The campaign covered roughly 310,000 compounds. About 14,000 (4.5%) showed an effect of 50% or more. The effect is printed as a negative number. The list shows a part of the results.

Each molecule was assayed against human ether-à-go-go-related gene (hERG) potassium channel (human, UniProt Q12809) (assay: primary screen, population patch clamp on CHO cells stably expressing hERG).
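Further: peak tail current of the secondary pulse compared with the same well before compound.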

Sequence of human ether-à-go-go-related gene (hERG) potassium channel (Q12809 whole entry, looked up): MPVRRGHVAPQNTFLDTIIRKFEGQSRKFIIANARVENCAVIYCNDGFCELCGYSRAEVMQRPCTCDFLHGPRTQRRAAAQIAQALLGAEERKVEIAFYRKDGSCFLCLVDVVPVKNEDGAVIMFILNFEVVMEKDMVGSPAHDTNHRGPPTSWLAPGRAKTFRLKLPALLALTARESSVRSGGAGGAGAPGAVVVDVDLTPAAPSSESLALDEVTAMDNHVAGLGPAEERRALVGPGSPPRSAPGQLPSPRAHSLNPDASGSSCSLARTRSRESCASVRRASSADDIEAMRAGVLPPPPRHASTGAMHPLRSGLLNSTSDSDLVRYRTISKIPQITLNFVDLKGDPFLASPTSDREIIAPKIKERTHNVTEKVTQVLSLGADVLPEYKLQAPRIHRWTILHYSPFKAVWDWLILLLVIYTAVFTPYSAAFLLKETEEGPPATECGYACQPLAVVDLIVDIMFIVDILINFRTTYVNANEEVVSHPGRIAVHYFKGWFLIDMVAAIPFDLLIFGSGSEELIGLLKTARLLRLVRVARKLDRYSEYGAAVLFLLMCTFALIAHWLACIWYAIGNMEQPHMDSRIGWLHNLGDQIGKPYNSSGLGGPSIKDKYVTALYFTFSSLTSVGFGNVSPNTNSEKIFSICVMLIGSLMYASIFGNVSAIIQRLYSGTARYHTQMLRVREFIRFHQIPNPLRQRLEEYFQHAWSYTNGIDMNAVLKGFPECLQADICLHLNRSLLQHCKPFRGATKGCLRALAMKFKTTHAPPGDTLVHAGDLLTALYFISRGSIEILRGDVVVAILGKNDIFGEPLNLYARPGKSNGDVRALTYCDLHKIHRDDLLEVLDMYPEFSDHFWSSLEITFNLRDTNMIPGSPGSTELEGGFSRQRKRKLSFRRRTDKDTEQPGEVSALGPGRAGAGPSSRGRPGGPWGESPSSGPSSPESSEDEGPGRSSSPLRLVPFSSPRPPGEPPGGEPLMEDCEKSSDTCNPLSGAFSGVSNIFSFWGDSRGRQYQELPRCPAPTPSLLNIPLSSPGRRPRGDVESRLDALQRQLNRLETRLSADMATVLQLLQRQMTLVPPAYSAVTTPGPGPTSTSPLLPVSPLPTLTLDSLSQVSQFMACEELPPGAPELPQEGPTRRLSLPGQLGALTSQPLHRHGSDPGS

SMILES | hERG current change (%, negative = inhibition) at 10uM [%]
Cc1nn(Cc2ccccc2)c(C)c1C(=O)NCC(c1cccs1)N1CCOCC1 (centres unmarked) | 7.45
Cc1noc(C)c1COc1cccc(C(=O)N2CCc3ccccc32)c1 | -26.4
COc1ccccc1CNC(=O)C(C)NS(=O)(=O)c1ccccc1 (centres unmarked) | 9.35
Cc1ccccc1-c1nc(CS(=O)(=O)CC(=O)N2CCCCC2)c(C)o1 | -8.14
CSCCCN1CC[C@@H](N2CCN(c3ccccc3F)CC2)[C@H](O)C1 | -36.8
O=C(NC1CCCC1)C(c1ccccn1)N(C(=O)c1csnn1)c1ccccc1Cl (centres unmarked) | 0.89
Cc1ccc(C)c(N/C(N)=N/c2nc(C)cc(C)n2)c1 | -34.2
CC(C)C(=O)NC(c1cccc([N+](=O)[O-])c1)c1ccc2cccnc2c1O (centres unmarked) | 7.56
O=C(COc1ccccc1)Nc1nnc(-c2ccccc2)o1 | -5.87
Cn1nc(-c2ccc(N3CCCCC3)c(NC(=O)c3ccco3)c2)c2ccccc2c1=O | 9.65
Cc1ccccc1CN(c1ccc(C(=O)Nc2ccccc2C(=O)NCc2ccco2)cc1)S(C)(=O)=O | -7.85
O=C(COC(=O)c1ccc(F)c(S(=O)(=O)N2CCCCC2)c1)NCc1ccc(F)cc1 | -28.9
O=C(Nc1ccncc1)Nc1ccccn1 | 4.5
CCOc1ccc(-n2c(=S)sc3c(=O)[nH]c(SCC(=O)N4CCC(C)CC4)nc32)cc1 | 19.9
CCCCC1(C(=O)OCC)NC(c2ccc(O)cc2)C2C(=O)N(c3ccccc3)C(=O)C21 (centres unmarked) | -3.73
COC(=O)c1c(NC(=O)c2nc3ccccc3s2)sc2c1CCN(C(C)=O)C2 | 11.6
CCN1CCN(C(=O)C2CCN(C(=O)Nc3ccccc3)CC2)CC1 | -4.16
COc1ccccc1-c1c(C(F)(F)F)oc2cc(OS(C)(=O)=O)ccc2c1=O | 4.5
O=C1CC(N(O)c2ccccc2)C(=O)N1Cc1ccccc1 (centres unmarked) | -2.37
Cc1cc(=O)oc2n[nH]c(-c3ccccc3)c12 | -9.13
COc1ccc(NC(=O)C2CCN(S(=O)(=O)c3cccc4nonc34)CC2)cc1 | 7.34
COc1ccccc1/C=N/NC(=O)c1c(-c2ccccc2)noc1C | 7.6
CS(=O)(=O)c1ccc(C(=O)OCC(=O)NC(=O)C2CCCCC2)cc1[N+](=O)[O-] | 28.1

SMILES | hERG current change (%, negative = inhibition) at 10uM [%]
CCOC(=O)c1sc(NC(=O)CN2CC(C)OC(C)C2)nc1C (centres unmarked) | 5.03
N#Cc1ccccc1N=C1CCCN1Cc1ccccc1 | 8.61
COCCCN(C(=O)c1ccc2ccccc2n1)c1c(N)n(Cc2ccccc2)c(=O)[nH]c1=O | 7
CCc1ccc(N(CC(=O)NCc2ccco2)C(=O)CCC(=O)Nc2ccccn2)cc1 | -1.61
CCC(=O)Nc1ccc(NCc2cccs2)cc1 | 7.52
COc1ccc(-c2cc(C(=O)NCCCN3CCOCC3)no2)cc1 | 1.44
CSCC[C@H](NC(=O)N1CCn2c1nc1ccccc12)C(=O)N1CCCCC1 | -11
CCOC(=O)Cc1csc(NC(=O)c2c(O)c3c(n(CC(C)C)c2=O)CCCC3)n1 | 3.52
Cc1ccc(-n2cc(CN3CCN(C(=O)c4ncn[nH]4)CC3)c(-c3ccc(F)cc3)n2)cc1 | -9.08
CC1CCC(C(C)C)C(=O)/C1=C\c1ccc(NC(=O)CCC(=O)O)cc1 (centres unmarked) | 10.8
C=CCCC(=O)Nc1ccc(COC(=O)N2CCOCC2)cc1 | 2.94
CC(C)C(c1nnnn1C1CCCCC1)N1CCc2ccccc21 (centres unmarked) | 7.61
Cc1c(Cc2ccccc2)c(=O)oc2cc(O)ccc12 | 4.98
Cl.OC(COc1ccccc1)CN1CCN(Cc2ccc3c(c2)OCO3)CC1 (centres unmarked) | -60.5
CCn1c(CNc2ccc(Cl)cc2)nnc1SCc1ccc(Cl)cc1 | -30.7
Cc1ccc(NC(=O)CSc2nc(=O)n(Cc3ccncc3)c3c2CCC3)c(C)c1 | -26.1
O=C(CN1C(=O)c2ccccc2C1=O)NCc1ccncc1 | -33.1
COc1cc(OC)c(OC)cc1CNC(=O)c1cc(=O)[nH]c2ccccc12 | 18.4
COc1cc(/C=N/NC(=O)c2cc(-c3ccc4c(c3)OCO4)n[nH]2)ccc1O | 6.01
CCCCn1cnc2cc(NCc3cccc(OC)c3O)ccc21 | -51.2
COc1ccc(C2CC(c3ccc(Cl)cc3)=NN2C(=O)c2cccc([N+](=O)[O-])c2)cc1 (centres unmarked) | 14.3
O=C1CCC(CCC(=O)N2CCCC(C(=O)c3cccc(C(F)(F)F)c3)C2)=NN1 (centres unmarked) | -31.4
O=C(O)c1ccc(SCc2ccccc2)nc1 | -2.56

SMILES | hERG current change (%, negative = inhibition) at 10uM [%]
COc1ccc(C(=O)Nc2ccc(Cl)c(Cl)c2)c(OC)n1 | 14.1
CC1CCN(C(=O)Cn2c(=O)n(CCc3ccccc3)c(=O)c3ccccc32)CC1 | -15.4
Cc1ccc(S(=O)(=O)N2CCN(C)CC2)cc1 | 18.1
COC(=O)CCC(NC(=O)c1cc(C)oc1C)C(=O)OC (centres unmarked) | 3.86
Cl.Clc1ccc(C2=NCCN2)cc1 | 9.16
C=CCNC(=O)c1ccc2c3n(nc2c1)-c1ccc(Cl)cc1CO3 | -48.5
CCCCN(C)CCNC(=O)CSCc1ccc(C)cc1.O=C(O)C(=O)O | -37.5
Cc1cccc(/C=C(\C#N)C(=O)Nc2ccccn2)c1 | 13.6
CCC(C)c1ccc(C2C3=C(Nc4nc(N)[nH]c(=O)c42)c2ccccc2C3=O)cc1 (centres unmarked) | 14.1
CCS(=O)(=O)N1CCCC(C(=O)c2ccc(OC)cc2C)C1 (centres unmarked) | 28.9
CCOC(=O)N1CCN(c2ncnc3scc(-c4ccc(Cl)cc4)c23)CC1 | -2.17
NS(=O)(=O)c1ccc(CNc2ncnc3sccc23)cc1 | 18.4
CC(Oc1ccc2c(c1)oc(=O)c1ccccc12)C(=O)NCCN1CCOCC1 (centres unmarked) | -5.38
Cc1ccc(-n2ncc3c2CCCC3NC(=O)CCn2ccnc2C)cc1C (centres unmarked) | 11.1
N#C/C(=C\c1cccc(Cl)c1)C(=O)c1ccccc1 | 15.4
O=C(CSc1nc2ccccc2[nH]1)N/N=C/c1ccco1 | -4.53
Cn1c(=O)c2c(nc(N/N=C/c3cccs3)n2C)n(C)c1=O | -4.69
CCOc1ccccc1C(=O)NCC(=O)NCCCSc1ccccc1 | 25.8
CC1(C(=O)NC23CC4CC(CC(C4)C2)C3)CC1(Cl)Cl (centres unmarked) | -3.58
COc1cccc2c(N/N=C/c3ccco3)cc(C)nc12 | -5.81
CCOc1ccccc1NC(=O)CCNC(=O)Cn1ccc2ccccc2c1=O | 6.08
COc1ccc(NS(=O)(=O)c2cccc3cccnc23)cc1Cl | 1.72
CN(c1cccnc1)c1ncnc2[nH]ncc12 | 3.57

SMILES | hERG current change (%, negative = inhibition) at 10uM [%]
COc1cccc(OC)c1C(=O)NNC(=O)c1cccnc1 | 19.6
CCN(c1ccccc1)S(=O)(=O)c1ccc(Cl)c(NC(=O)CN2CCN(C)CC2)c1 | -59.2
NNC(=O)c1nc[nH]c1C(=O)Nc1ccccc1 | 24.1
COc1ccc(NC(=O)CCN2CCCC2)c(OC)c1 | 7.46
COc1ccc(OC)c(C(=O)N2CCC(n3nccc3NC(=O)CC(C)C)CC2)c1 | 9.25
C=C(C)c1cccc(C(C)(C)NC(=O)Nc2nnc(C(C)C)s2)c1 | -7.97
COc1cc(OC)cc(C(=O)NN2CCOCC2)c1 | 0.542
CN(C)C(=O)c1ccc(NC(=O)CN2CCc3cc4c(cc3C2)OCCCO4)cc1 | 5.8
CCCN1C(=O)SC(CC(=O)Nc2ccc(C)cc2)C1=O (centres unmarked) | -6.12
CN(Cc1cc(=O)n2ccsc2n1)C1CCCCC1 | -7.56
Cc1cccc(NC(=O)Cn2c(=O)oc3cc(S(=O)(=O)N4CCCC4)ccc32)n1 | 2.33
COCCNC(=O)C(c1ccco1)N(C(=O)Cn1nnc2ccccc21)c1ccc(C)cc1C (centres unmarked) | 0.494
CC(=O)Oc1ccccc1/C=C1\CCOC1=O | 8.5
COCCCn1c(-c2ccsc2)nc2c1c(=O)[nH]c(=O)n2Cc1ccccc1 | -1.73
Cc1ccnc(N2C(=O)c3ccc([N+](=O)[O-])cc3C2=O)c1 | 13
CCCCNC(=O)Nc1ccccc1Br | 1.95
Cc1ccc(S(=O)(=O)NCC(=O)N2CCN(c3ccc(F)cc3)CC2)cc1 | -10.2
COCCN(C(=O)CSc1nc2ccc(OC)cc2[nH]1)c1c(N)n(Cc2ccccc2)c(=O)[nH]c1=O | 11.6
COc1ccc(CN(CC(=O)NC2CCCC2)C(=O)CCC(=O)Nc2cc(C)on2)cc1 | -8.45
COc1ccc(OCCSc2nnc(CC(=O)Nc3cccc(Cl)c3Cl)n2C)cc1 | 16.7
